# Measured values taken from article PMC4336329 (PLoS ONE, 2015).
# Screen size: about 310,000 compounds; about 2,200 (0.71%) showed an effect of 50% or more. Effects have a minus sign here. Some of the results follow.
# Biological target: human ether-à-go-go-related gene (hERG) potassium channel (human, UniProt Q12809)
# Experiment: primary screen, population patch clamp on CHO cells stably expressing hERG
# Chain of human ether-à-go-go-related gene (hERG) potassium channel (Q12809 whole entry, looked up): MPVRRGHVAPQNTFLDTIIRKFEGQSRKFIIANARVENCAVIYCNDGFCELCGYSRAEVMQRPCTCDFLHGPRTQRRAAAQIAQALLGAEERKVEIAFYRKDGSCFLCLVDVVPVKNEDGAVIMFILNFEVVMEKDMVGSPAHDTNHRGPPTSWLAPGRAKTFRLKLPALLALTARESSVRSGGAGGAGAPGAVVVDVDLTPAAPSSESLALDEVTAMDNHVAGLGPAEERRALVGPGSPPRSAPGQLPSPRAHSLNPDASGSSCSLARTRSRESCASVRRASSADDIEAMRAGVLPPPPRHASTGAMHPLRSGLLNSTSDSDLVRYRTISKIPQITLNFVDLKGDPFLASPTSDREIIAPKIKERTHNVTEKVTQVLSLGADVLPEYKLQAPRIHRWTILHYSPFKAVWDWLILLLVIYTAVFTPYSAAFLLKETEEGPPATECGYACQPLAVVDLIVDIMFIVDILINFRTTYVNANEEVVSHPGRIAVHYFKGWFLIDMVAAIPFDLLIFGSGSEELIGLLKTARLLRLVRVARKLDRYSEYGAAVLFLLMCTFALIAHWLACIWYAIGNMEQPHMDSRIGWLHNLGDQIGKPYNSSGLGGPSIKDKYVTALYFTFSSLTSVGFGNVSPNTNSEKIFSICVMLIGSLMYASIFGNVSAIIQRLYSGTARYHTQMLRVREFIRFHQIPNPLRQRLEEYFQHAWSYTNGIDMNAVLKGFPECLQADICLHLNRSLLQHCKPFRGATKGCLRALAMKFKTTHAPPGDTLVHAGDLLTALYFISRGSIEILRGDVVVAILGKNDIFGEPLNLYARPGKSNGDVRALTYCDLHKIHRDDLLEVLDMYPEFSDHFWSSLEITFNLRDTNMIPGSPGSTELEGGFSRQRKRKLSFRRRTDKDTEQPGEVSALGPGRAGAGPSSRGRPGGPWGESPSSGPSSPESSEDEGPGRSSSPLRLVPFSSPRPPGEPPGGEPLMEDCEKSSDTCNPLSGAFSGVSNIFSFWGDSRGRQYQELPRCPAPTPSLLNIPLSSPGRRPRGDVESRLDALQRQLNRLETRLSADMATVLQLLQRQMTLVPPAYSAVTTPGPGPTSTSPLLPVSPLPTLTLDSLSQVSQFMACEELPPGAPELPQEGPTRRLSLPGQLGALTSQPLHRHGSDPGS
row,SMILES,"hERG current change (%, negative = inhibition) at 1uM [%]"
1,CCCc1nn2c(=O)cc(CSCC(=O)Nc3ccc(F)cc3)nc2s1,12.2
2,CCOC(=O)c1c(CC(C)C)csc1N,-11.9
3,Cc1ccc(S(=O)(=O)[O-])cc1.c1cnc2c(c1)ccc1ccc[nH+]c12,20.7
4,Cl.O=C1CSC(c2cn(-c3ccccc3)nc2-c2ccc3c(c2)OCCO3)N1CCN1CCOCC1 (stereo not drawn),7.76
5,COc1ccc(/C=C/c2ccc(=O)n(Cc3ccccc3)n2)cc1,12.4
6,C/C(=N\NC(=O)c1ccccc1)c1cc2cc([N+](=O)[O-])ccc2oc1=O,5.09
7,Cc1ccccc1-c1ccc(/C=C2/SC(N3CCOCC3)=NC2=O)o1,-3.7
8,O=C(Nc1ccccc1Oc1ccccc1)C1=COCCO1,4.63
9,Cc1ccc(CNC(=O)CCC(=O)n2ncc3cc(C)ccc32)cc1,12
10,COC(=O)C1(C)NC(c2ccc(O)cc2)C2C(=O)N(c3ccc4c(c3)OCCO4)C(=O)C21 (stereo not drawn),8.41
11,CC(C)CCN(C(=O)c1cc(=O)[nH]c2ccccc12)c1c(N)n(Cc2ccccc2)c(=O)[nH]c1=O,1.37
12,Cc1nn(-c2ccccc2)c(Cl)c1C(=O)Nc1nnc(C2CCCCC2)s1,11.9
13,CCOC(=O)c1ccc(NC(=O)c2cc(S(=O)(=O)N3CCOCC3)cn2C)cc1,11.6
14,CC(=O)Nc1ccc(NC(=S)Nc2ccccc2)cc1,-4.47
15,Cc1ccc(C(=O)NC(=S)NCc2ccco2)cc1,9.64
16,S=C(NCc1ccccn1)Nc1cccc(Cl)c1,10.7
17,CCCN1C2CCCC1CC(NC(=O)c1cccc(OC)c1)C2 (stereo not drawn),8.52
18,O=C(NCc1ccccc1)C1CCCN(C(=O)Nc2ccccc2)C1 (stereo not drawn),19.6
19,CCOC(=O)c1cnn2c(C(F)(F)F)cc(-c3cn(C)nc3C)nc12,12.5
20,COc1ccc(/C=C/C(=O)Oc2ccc(/C=N/NC(=O)c3ccccc3)cc2)cc1OC,6.42
21,CCN(CC)S(=O)(=O)c1ccc(-c2nnc(SCC(=O)c3ccc(OC)cc3)o2)cc1,5.81
22,Cc1nccn1-c1cc(C(C)(C)C)nc2c(-c3ccccc3)cnn12,2.82

row,SMILES,"hERG current change (%, negative = inhibition) at 1uM [%]"
1,CC(=O)Nc1cccc(NC=C(C#N)C#N)c1,15.8
2,O=C(CCNS(=O)(=O)c1c(Cl)cccc1Cl)N1CCCC1,11.3
3,COc1ccc(N=Nc2ccc3ccccc3c2)c(O)c1,10.1
4,O=C(N/N=C/c1ccccc1F)c1csc2c1CCCC2,10.2
5,COc1ccc(S(=O)(=O)N2CCCCCC2)cc1C(=O)N(C)Cc1c(F)cccc1Cl,2.91
6,COc1cccc(N2C(=O)CC(N3CCN(c4ccc([N+](=O)[O-])cc4)CC3)C2=O)c1 (stereo not drawn),-7.4
7,CC1CCCC(C)N1c1nnc(NC(=O)Cn2c(=O)oc3ccccc32)s1 (stereo not drawn),14.3
8,O=C(N/N=C\c1cccc([N+](=O)[O-])c1O)C1COc2ccccc2O1 (stereo not drawn),9.48
9,Cc1nn(Cc2ccccc2)c(Cl)c1C(=O)OCc1nnc(-c2ccccc2)o1,8.89
10,CCOC(=O)c1c(C)[nH]c(C(=O)COC(=O)c2cnc(C)cn2)c1C,0.153
11,O=C(O)CC(NC(=O)COc1ccccc1)c1cccc([N+](=O)[O-])c1 (stereo not drawn),6.58
12,CC(=O)c1ccc(-c2nnc(CCC(=O)N3CCCC(C(=O)CC(C)C)C3)o2)s1 (stereo not drawn),4.6
13,O=S(=O)(NCc1ccco1)c1cccc2cccnc12,6.6
14,O=C(OCCN1C(=O)c2ccccc2C1=O)c1ccc(S(=O)(=O)N2CCCCCC2)cc1,-0.0351
15,CC1(C)CC(=O)C=C(Nc2ccccc2C#N)C1.Cl,17.7
16,O=C(N=C1N=C2C=CC(Br)=CN2Cc2ccccc21)c1ccc([N+](=O)[O-])cc1[N+](=O)[O-],6.29
17,Cc1ccc(N2C(=O)NC(=O)/C(=C\c3ccoc3)C2=O)cc1,17
18,O=C(N/N=C/c1ccoc1)c1cc(O)cc(O)c1,13.8
19,CCN(CCCNC(=O)C1CCC(=O)N1Cc1ccc(C)cc1)c1cccc(C)c1 (stereo not drawn),3.57
20,COc1ccc(-c2nn(-c3ccccc3)cc2C(=O)O)cc1N,6.23
21,COc1cc(C)c(NC(=S)Nc2cccc(Cl)c2C)cc1OC,13.3
22,Cn1c(CCN2CCOCC2)nc2cc(NC(=O)COc3ccccc3)ccc21,2.19

row,SMILES,"hERG current change (%, negative = inhibition) at 1uM [%]"
1,Cc1ccccc1NC(=S)NCc1ccc(F)cc1,11
2,CCCn1c(=N)c(C#N)cc2c(=O)n3ccccc3nc21,6.15
3,CCOC(=O)N/N=C/c1ccc(F)cc1,12.4
4,O=C(CCc1nnc(Cc2ccc(-c3ccccc3)cc2)o1)NCCc1cccnc1,5.17
5,Cc1c(Cl)c(=O)oc2cc(OCC(=O)NCc3cccs3)ccc12,5.12
6,COc1ccc(C2CC(c3ccc(Br)cc3)Nc3nc(N)nn32)cc1 (stereo not drawn),-12.4
7,COc1ccc(N2CCN(S(=O)(=O)c3ccc(Cl)s3)CC2)cc1,16
8,O=C(CCC(=O)N1CCC2(CC1)OCCO2)Nc1nnc(C2CCCCC2)s1,17.7
9,COc1cccc(N=Nc2ccc3ccccc3c2O)c1,21.5
10,Cc1cccc2cc(/C=C/C(=O)c3ccco3)c(Cl)nc12,10.2
11,Cn1c(SCC(=O)NC2CCCCC2)nnc1-c1ccccn1,5.73
12,CN(C)c1ccc(C(CNC(=O)c2ccc(C#N)cc2)c2c[nH]c3ccccc23)cc1 (stereo not drawn),6.97
13,COc1ccc(C(CNC(=O)C(C)(C)Oc2ccc(Cl)cc2)N2CCCC2)cc1 (stereo not drawn),-2.2
14,CCc1nnc(NC(=O)/C=C/c2cccs2)s1,12.9
15,Cc1ccc(C2NC(=S)NC(c3ccc(C)cc3)C23C(=O)NC(=O)NC3=O)cc1 (stereo not drawn),10.1
16,CCn1nc(C(=O)Nc2ccc(S(=O)(=O)Nc3ncccn3)cc2)c2ccccc2c1=O,2.32
17,O=C(CC1C(=O)NCCN1Cc1ccc(Cl)c(F)c1)NC1CCCCC1 (stereo not drawn),7.85
18,Cc1ccc2c(c1)N(CCC(=O)NCc1cccs1)C(=O)C(C)O2 (stereo not drawn),11.1
19,COc1ccc(-c2noc3c2-c2nc(C(C)C)sc2CC3)cc1,9.27
20,O=c1[nH]c(=S)[nH]c(O)c1N=Nc1cccc(S(=O)(=O)N2CCOCC2)c1,9.32
21,Cc1ccc(-c2nc3c(=O)n(C)c4ccccc4c3o2)cc1,24.8
22,Cc1onc(-c2c(Cl)cccc2Cl)c1C(=O)N=C(N)N1CCCC1,9.88

row,SMILES,"hERG current change (%, negative = inhibition) at 1uM [%]"
1,COc1ccc(Cc2nnc(SCC(=O)c3cccc([N+](=O)[O-])c3)n2C)cc1,8.96
2,COc1ccc(S(=O)(=O)N2CC(C(=O)O)Oc3ccc(Cl)cc32)cc1 (stereo not drawn),15.9
3,Cc1cc(CNC(=O)c2cc(COc3ccc(F)c(F)c3)on2)nn1C,-14.3
4,CCCCC(=O)Nc1ccc(N2CCN(S(C)(=O)=O)CC2)cc1,-1.28
5,CCOC(=O)C(NC(=O)CCl)(Nc1sc(C)c(CC)c1C#N)C(F)(F)F (stereo not drawn),-3.6
6,O=C1c2ccccc2NC(c2ccccn2)N1c1ccc(Cl)cc1 (stereo not drawn),0.394
7,C/C(=N\NC(=O)OC(C)(C)C)c1ccc[nH]1,7.25
8,COc1ccccc1NC(=O)N1CCCC(c2nc3c(nnn3Cc3ccc(C)cc3)c(=O)[nH]2)C1 (stereo not drawn),-11.1
9,CNC(=O)COC(=O)[C@@H](Nc1ccc(S(=O)(=O)N2CCOCC2)cc1[N+](=O)[O-])C(C)C,-2.27
10,O=c1/c(=C\c2cc([N+](=O)[O-])cc([N+](=O)[O-])c2O)sc2nc3ccccc3n12,10.6
11,CCC1(C(=O)OC)NC(c2ccco2)C2C(=O)N(c3ccc(F)cc3)C(=O)C21 (stereo not drawn),6.08
12,CC[n+]1c(C)n(C)c2cc(S(=O)(=O)N(C)C)ccc21.[I-],10.2
13,NC1=C([N+](=O)[O-])C(c2ccc3c(c2)OCO3)C2=C(CCCC2=O)O1 (stereo not drawn),11.5
14,S=c1[nH]nc(-c2cc(-c3ccccc3)n[nH]2)n1/N=C/c1ccc(Cl)c(Cl)c1,8.7
15,CCCCC1(COC(=O)CCC(=O)O)C(=O)N(c2ccccc2)N(c2ccccc2)C1=O,15.5
16,COC(=O)C1CCN(c2ccc(C(N)=O)cc2[N+](=O)[O-])CC1,10.7
17,Cc1ccccc1-c1nc2ccccc2c(=O)n1/N=C/c1ccc([N+](=O)[O-])cc1,4.52
18,Cc1nc(S(=O)(=O)N(C)Cc2ccccc2)c(C#N)c(C)c1Cl,10.9
19,CC1(C)CN(c2ccc(CC#N)cc2)C1=O,10
20,CS(=O)c1ccccc1-c1nc(-c2cccc(Cl)c2)no1 (stereo not drawn),-3.12
21,CC(=O)C1C(c2ccc(F)cc2)C2C(C)=NN=C2CC1(C)O (stereo not drawn),15.9
